{
  "source": "PubChem BioAssay AID588855",
  "about": "(National Center for Advancing Translational Sciences (NCATS), 2011)",
  "note": "The campaign covered roughly 410,000 compounds. About 5,000 (1.2%) were called active. Inconclusive results, whose numbers are uncertain, are shown with a selection of clear calls. Calls come from the whole dose curve; as a rule, active = well fitted inhibition curve with a large enough effect; inconclusive = small, poorly fitted or top-dose-only effect; inactive = no such curve, though single readings can be large or run the other way. Potencies beside an inconclusive call are fits to weak or partial responses and may not hold up. Potency is the fitted concentration of half-maximal effect; tags give direction and shape of the fitted curve.",
  "data": [
    {"test": "qHTS for Inhibitors of TGF-b; note: nearly all actives have a fitted effect of over 65% in size", "conditions": "HepG2 CAGA-GFP TGF-b/SMAD3 reporter, GFP fluorescence, 18 h, TGF-beta stimulated, 500 pg/mL final; series mostly up to 46.1 µM", "how_it_was_run": "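HEPG2 CAGA-GFP, 1000 cells/well; 2 h settle, 37 C; cpd via pin tool; TGF-b 500 pg/mL final; 18 h, 37 C; GFP imaging ex488/em500-530; %Activity normalised to -TGF-b and +DMSO controls; CRC fit, curve class.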", "values": [
      {"smiles": "O=[N+]([O-])c1cc(-c2csc(NC(CO)c3nc4ccccc4n3CCOCCO)n2)ccc1Cl", "note": "(configuration not stated)", "Potency": "inconclusive: 35.5 µM [inhibitor, single point]"},
      {"smiles": "COc1ccc(C)cc1NC(=O)Cn1nc(N2CCN(c3ccccc3OC)CC2)ccc1=O", "Potency": "inactive"},
      {"smiles": "COc1ccc(/C=C2/SC(=S)N(NS(=O)(=O)c3ccccc3)C2=O)cc1", "Potency": "inconclusive: 3.98 µM [inhibitor, full curve, poor fit]"},
      {"smiles": "CN1OC[C@@H]2CN(S(=O)(=O)c3cccc4ccccc34)[C@H](c3ccc(N4CCCCC4)cc3)C[C@@H]21", "Potency": "inconclusive: 11.2 µM [inhibitor, single point]"},
      {"smiles": "CCOC(=O)c1c(NC(=O)CN2CCCCC2)sc2c1CCCC2O", "note": "(configuration not stated)", "Potency": "inconclusive: 35.5 µM [inhibitor, single point]"},
      {"smiles": "O=C(NCCCN1CCOCC1)C1CCN(S(=O)(=O)c2cccc(Cl)c2Cl)CC1", "Potency": "inconclusive: 35.5 µM [inhibitor, single point]"},
      {"smiles": "C[C@H](NC(=O)c1nc[nH]c1C(=O)N1CCc2ccccc2C1)c1ccccc1", "Potency": "inconclusive: 14.1 µM [inhibitor, single point]"},
      {"smiles": "COCCNC(=S)N/N=C(\\C)CCc1ccc2c(c1)OCO2", "Potency": "inconclusive: 35.5 µM [inhibitor, single point]"},
      {"smiles": "CC(C)N(CCCNC(=O)c1ccc(CS(=O)(=O)c2c(Cl)cccc2Cl)o1)Cc1ccccc1", "Potency": "inactive"},
      {"smiles": "CC(=O)Nc1nc(COc2ccccc2)cs1", "Potency": "inconclusive: 25.1 µM [inhibitor, single point]"},
      {"smiles": "O=[N+]([O-])c1ccc(S(=O)(=O)N2CCN(C3CCN(Cc4ccccc4)CC3)CC2)cc1", "Potency": "inactive"},
      {"smiles": "CCC(CO)Oc1cc(NC(=O)c2ccc([N+](=O)[O-])cc2)c2ncn(C(C)C)c2c1", "note": "(configuration not stated)", "Potency": "inactive"},
      {"smiles": "COc1ccc(OC)c(NS(=O)(=O)c2c(C)nc3sccn3c2=O)c1", "Potency": "inconclusive: 6.31 µM [inhibitor, single point]"},
      {"smiles": "CCCC1=Nc2cc(C(=O)NCc3ccccc3)ccc2Sc2ccccc21", "Potency": "inconclusive: 8.91 µM [inhibitor, partial curve]"},
      {"smiles": "CCSc1nc(-c2ccccc2)nc2c1Cc1c(CO)cnc(C)c1O2", "Potency": "inactive"},
      {"smiles": "COc1ccc(-n2cc(-c3ccccc3)[nH]c2=S)c(OC)c1", "Potency": "inactive"},
      {"smiles": "Cc1ccc(C(=O)c2oc3ccccc3c2NC(=O)c2cc(-c3ccccc3)on2)cc1", "Potency": "inconclusive: 28.2 µM [inhibitor, single point]"},
      {"smiles": "Cc1ccccc1NC(=O)C12CC3CCC1(C)C3(C)CO2", "note": "(configuration not stated)", "Potency": "inconclusive: 6.31 µM [inhibitor, single point]"},
      {"smiles": "COc1nc(-c2ccccc2)ccc1-c1noc(-c2ccccc2)n1", "Potency": "inconclusive: 0.562 µM [inhibitor, full curve, poor fit]"},
      {"smiles": "COCCn1cc(C(=O)NCCCN2CCC(C)CC2)c2c3ccccc3n(C)c2c1=O", "Potency": "inconclusive: 3.55 µM [inhibitor, single point]"},
      {"smiles": "O=C(C1CC=CCC1)N1CCC(CO)(Cc2ccc(Cl)cc2)CC1", "note": "(configuration not stated)", "Potency": "inconclusive: 14.1 µM [inhibitor, single point]"},
      {"smiles": "N#Cc1ccc(C(=O)NCCCSc2ccccc2)cc1", "Potency": "inactive"},
      {"smiles": "CCOC(=O)c1c(NC(=O)c2ccc(S(=O)(=O)N3CCCC(C)C3)cc2)sc2c1CC(C)(C)NC2(C)C", "note": "(configuration not stated)", "Potency": "inconclusive: 35.5 µM [inhibitor, single point]"},
      {"smiles": "Cc1nc2c(=O)n(C)c(=O)n(C)c2nc1Cl", "Potency": "active: 7.08 µM"},
      {"smiles": "CCCCC(=O)Nc1ccc(NC(=S)NC(=O)CCCCl)cc1OC", "Potency": "inconclusive: 35.5 µM [inhibitor, single point]"},
      {"smiles": "CCOc1cc(/C=N/NC(=O)c2cccnc2)ccc1OCc1ccc(C(=O)OC)o1", "Potency": "inconclusive: 31.6 µM [inhibitor, single point]"},
      {"smiles": "COc1ccc2[nH]c(=O)c(CN(CCO)S(=O)(=O)c3ccc(C)cc3)cc2c1", "Potency": "inactive"},
      {"smiles": "CCOc1ccc(C2OCCC(C)O2)cc1OC", "note": "(configuration not stated)", "Potency": "inactive"},
      {"smiles": "CCn1c(-c2ccc[nH]c2=O)nc2ccccc21", "Potency": "inactive"},
      {"smiles": "Cc1cc(C)n(-c2nc(NC(C)C)nc(NC(C)C)n2)n1", "Potency": "inconclusive: 10 µM [inhibitor, single point]"},
      {"smiles": "O=C(OCC(=O)N1CCOCC1)c1ccccc1O", "Potency": "inactive"},
      {"smiles": "Cc1ccc(S(=O)(=O)N2CCN(Cc3ccccc3)CC2)c(C)c1N(C)S(=O)(=O)c1ccccc1", "Potency": "inconclusive: 5.62 µM [inhibitor, full curve, poor fit]"},
      {"smiles": "COc1ccc(C(=O)Nc2nc(-c3ccc(Br)cc3)ns2)cc1", "Potency": "inconclusive: 0.112 µM [inhibitor, full curve, poor fit]"},
      {"smiles": "O=S(=O)(c1ccc2ccccc2c1)N1CCC(c2nc(-c3ccncc3)no2)CC1", "Potency": "inconclusive: 3.98 µM [inhibitor, full curve, poor fit]"},
      {"smiles": "O=C(N/N=C/c1ccc2c(c1)OCO2)c1cc(-c2ccccc2)nc2ccccc12", "Potency": "inactive"},
      {"smiles": "O=C(Nc1cccnc1)c1ccc(S(=O)(=O)c2ccc(Cl)cc2)cc1", "Potency": "inactive"},
      {"smiles": "Cc1cccc(C(=O)N2CCc3cc(CNC(=O)c4ccco4)ccc32)c1", "Potency": "inconclusive: 14.1 µM [inhibitor, partial curve, poor fit]"},
      {"smiles": "COc1ccc(S(=O)(=O)NCCC(=O)OCC(=O)NC2CC2)cc1", "Potency": "inactive"},
      {"smiles": "COc1cccc2[nH]c3c(N4CCC5(CC4)OCCO5)ncnc3c12", "Potency": "inactive"},
      {"smiles": "CC(/C=C/c1ccccc1)=N/NC(=O)CCC(=O)Nc1ccccc1C", "Potency": "inconclusive: 22.4 µM [inhibitor, single point]"},
      {"smiles": "Cc1cc(C(=O)CCl)c(C)n1Cc1ccco1", "Potency": "inconclusive: 22.4 µM [inhibitor, single point]"},
      {"smiles": "CCCn1c2ccccc2c2cnn(CC(=O)NCC3CCN(Cc4ccccc4C)CC3)c(=O)c21", "Potency": "inconclusive: 5.62 µM [inhibitor, single point]"},
      {"smiles": "NC(=O)c1ccc(NC(=O)C#Cc2ccccc2)cc1", "Potency": "inconclusive: 15.8 µM [inhibitor, single point]"},
      {"smiles": "COC(=O)CN1C(=O)C(O)(c2c(C)[nH]c3ccccc23)c2ccccc21", "note": "(configuration not stated)", "Potency": "inconclusive: 12.6 µM [inhibitor, partial curve, poor fit]"},
      {"smiles": "CN(C)C(CNc1ncnc2sc3c(c12)CCCCC3)c1ccco1", "note": "(configuration not stated)", "Potency": "inconclusive: 35.5 µM [inhibitor, single point]"},
      {"smiles": "Cc1cc(S(=O)(=O)Nc2cc3c(cc2N2CCOCC2)n(C)c(=O)c(=O)n3C)ccc1F", "Potency": "inactive"},
      {"smiles": "COc1ccc(/C=C/C(=O)c2ccccc2O)cc1CN1CCOCC1", "Potency": "inactive"},
      {"smiles": "CCCCC(CC)Cn1c(N)c(C#N)c2nc3ccccc3nc21", "note": "(configuration not stated)", "Potency": "inconclusive: 35.5 µM [inhibitor, single point]"},
      {"smiles": "O=S(=O)(CC(CN1CCCCC1)N1CCCCC1)c1ccc2ccccc2c1", "note": "(configuration not stated)", "Potency": "active: 3.16 µM"},
      {"smiles": "O=S(=O)(Nc1ccc2c(c1)OCO2)c1cccs1", "Potency": "inconclusive: 3.16 µM [inhibitor, single point]"},
      {"smiles": "CC/C(=C(\\c1ccccc1)c1ccc(OCCN(C)C)cc1)c1ccccc1", "Potency": "inconclusive: 35.5 µM [inhibitor, single point]"},
      {"smiles": "CC(C)(C)CC(C)(C)NCC(O)COc1c(F)cc(Br)cc1F", "note": "(configuration not stated)", "Potency": "inconclusive: 35.5 µM [inhibitor, single point]"},
      {"smiles": "Cc1ccc(CNc2nc(C)cs2)cc1", "Potency": "inactive"},
      {"smiles": "O=C(CSc1nc(-c2ccccc2)cc(=O)[nH]1)Nc1ccc(Br)cc1", "Potency": "inconclusive: 22.4 µM [inhibitor, single point]"},
      {"smiles": "CC1CCCC(C)N1S(=O)(=O)c1ccc(NC(=O)CNCC2CCCO2)cc1", "note": "(configuration not stated)", "Potency": "inconclusive: 3.55 µM [inhibitor, partial curve, poor fit]"},
      {"smiles": "Cc1ccnc(NC(c2cccc(O)c2)c2ccc3ccc(C)nc3c2O)c1", "note": "(configuration not stated)", "Potency": "inconclusive: 22.4 µM [inhibitor, single point]"},
      {"smiles": "Cc1cccnc1CN1CCN(Cc2nc(C(c3ccccc3)c3ccccc3)no2)CC1", "Potency": "inconclusive: 7.94 µM [inhibitor, partial curve]"},
      {"smiles": "CCC1=NN(C(=O)CCc2ccccc2)C(O)(C(F)(F)F)C1", "note": "(configuration not stated)", "Potency": "inactive"},
      {"smiles": "COc1ccc(-c2cnc(SCC(=O)Nc3nc(C(C)(C)C)cs3)n2Cc2ccco2)cc1", "Potency": "inconclusive: 35.5 µM [inhibitor, single point]"},
      {"smiles": "CC(C)(C)c1ccc(NC(=S)NCc2cccs2)cc1", "Potency": "inconclusive: 20 µM [inhibitor, single point]"},
      {"smiles": "CCOc1ccccc1N(C(=O)Nc1ccc(Cl)cc1)C1=NC(C)CS1", "note": "(configuration not stated)", "Potency": "inconclusive: 11.2 µM [inhibitor, single point]"},
      {"smiles": "CCOC(=O)c1c(-c2ccccc2)oc2ccc(NS(=O)(=O)c3ccc(C)cc3)cc12", "Potency": "inconclusive: 35.5 µM [inhibitor, single point]"},
      {"smiles": "COc1ccccc1Cn1c(C2CC(=O)N(c3ccccc3OC)C2)nc2ccccc21", "note": "(configuration not stated)", "Potency": "active: 12.6 µM"},
      {"smiles": "CC(C)OC(=O)CCCNc1ccc([N+](=O)[O-])cc1[N+](=O)[O-]", "Potency": "inconclusive: 0.562 µM [inhibitor, full curve, poor fit]"},
      {"smiles": "O=C(CSC1=Nc2ccccc2C2=NC(Cc3ccccc3)C(=O)N12)Nc1cccc(Cl)c1", "note": "(configuration not stated)", "Potency": "inconclusive: 11.2 µM [inhibitor, partial curve, poor fit]"},
      {"smiles": "O=C(C1=C[C@@H](c2csc3ccccc23)C[C@@H](OCc2ccc(CO)cc2)O1)N1CCN(Cc2ccc3c(c2)OCO3)CC1", "Potency": "inconclusive: 10 µM [inhibitor, partial curve, poor fit]"},
      {"smiles": "COc1ccc(NC(=O)N(C)[C@H]2C[C@H]3c4[nH]c5ccc(-c6ccc(OC)cc6)cc5c4CCN3C(=O)[C@H]2[C@H](C)O)cc1", "Potency": "inconclusive: 28.2 µM [inhibitor, single point]"}
    ]}
  ]
}
